According to PubChem BioAssay AID686978 (National Center for Advancing Translational Sciences (NCATS), 2013):
The whole screen tested about 420,000 compounds, of which about 64,000 (15%) were called active. Inconclusive results, whose numbers are uncertain, are shown with a selection of clear calls. Calls come from the whole dose curve; as a rule, active = well fitted inhibition curve with a large enough effect; inconclusive = small, poorly fitted or top-dose-only effect; inactive = flat fitted curve, though single readings scatter. No potency is given beside an inconclusive call; the fits are too rough.

Test: qHTS for Inhibitors of human tyrosyl-DNA phosphodiesterase 1 (TDP1): qHTS in cells in absence of CPT; note: nearly all actives have a fitted effect of over 55% in size
Conditions: DT40 Tdp1-/- hTDP1 cells, no CPT, ATP luminescence, 48 h; activity change, negative = growth inhibition: at 46.2 µM (top of the series) unless noted
Method in brief: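 DT40 Tdp1-/-;hTDP1 cells, no CPT (DMSO vehicle only), 400 cells/well; compounds pin-transferred; ≥48 hr, 37 °C; CellTiter-Glo 30 min RT dark, luminescence read.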
% is set by controls: 0 for no effect and ±100 for the full control effect; potency is the fitted concentration of half-maximal effect; tags give direction and shape of the fitted curve.

SMILES | Potency | activity change, negative = growth inhibition
O=S(=O)(c1ccccc1)N1CCC(c2ccncc2)CC1 | active: 20.6 µM | 
COc1ccc(S(=O)(=O)n2ccc(-c3ccc(OCCN(C)c4ccccn4)cc3)n2)cc1 | inconclusive [inhibitor, partial curve] | 
O=C(NC1CCCCC1)c1cc(S(=O)(=O)N2CCOCC2)ccc1Cl |  | inactive: -8.92%
Cc1cc(C)c(CN2CCC3(CCC(CNC(=O)c4ccn(C)n4)O3)CC2)cc1C (centres undefined) |  | inactive: -21.4%
COc1ccc(-c2nn(CCC(=O)O)cc2CCC(=O)O)cc1 |  | inactive: -8.01%
CCC(C)NC(=O)c1sc2nc(C)c(C(=O)Nc3ccc(C)cc3C)c(-c3ccc(Cl)cc3)c2c1N (centres undefined) | inconclusive [inhibitor, partial curve] | 
O=C(Nc1ccc2nc3n(c(=O)c2c1)CCCC3)c1ccc(Cl)nc1 |  | inconclusive: -33.1% [inhibitor]
COc1ccccc1CNC(=O)CCn1c(=O)sc2ccccc21 |  | inactive: -9.01%
CCc1nc2c(OCc3c(C)noc3C)cccn2c1N(C=O)Cc1ccccc1 | active: 20.6 µM | 
CNc1cc(-c2cccc(OC)c2F)nc2ccnn12 | inconclusive [inhibitor, single point] | 
O=S(=O)(c1ccc(NC(=S)N2CCCCC2)cc1)N1CCCCC1 | inconclusive [inhibitor, single point] | 
COc1ccc(CC2(CO)CCN(Cc3cnn(-c4ccccc4OC)c3)CC2)cc1 | active: 10.3 µM | 
Cc1ccc(-c2nn(C)c(=O)c3ccccc23)cc1CNC(=O)NC1CCCCC1 | inconclusive [inhibitor, single point] | 
COc1ccc(CC(=O)NC(C)c2ccc3ccccc3c2)cc1 (centres undefined) |  | inactive: -7.94%
COC(=O)c1ccc(CNC(=O)COC(=O)/C=C/c2ccc(O)c(OC)c2)cc1 | inconclusive [inhibitor, single point] | 
Cc1ccc(CN2CCSc3ccc(C(=O)NCCCN4CCOCC4)cc32)cc1 | inconclusive [inhibitor, partial curve] | 
CNC(=S)N(CCc1c(C)[nH]c2ccccc12)Cc1cccnc1 | inconclusive [inhibitor, partial curve] | 
Cc1ccc2c(c1)c1c(c(=O)n(-c3ccccc3C)c(=O)n1CC(=O)NCCC1=CCCCC1)n2C | inconclusive [inhibitor, single point] | 
Cc1ccc(CNC(=O)c2cncc(Br)c2)cc1 | inconclusive [inhibitor, single point] | 
COc1ccc(-c2nc(CSCC(=O)NC3CCN(Cc4ccccc4)CC3)c(C)o2)cc1OC | inconclusive [inhibitor, single point] | 
Cc1ccc(OCC(=O)Nc2c3c(nn2C(C)(C)C)CS(=O)(=O)C3)cc1 |  | inactive: -7.91%
Cc1cc(NC(=O)COC(=O)c2ccccc2OCCOc2ccccc2)ccc1Br |  | inconclusive: -30.8% [inhibitor]
N=c1c2c(-c3ccccc3)c(-c3ccccc3)n(Cc3ccco3)c2ncn1Cc1ccccc1 |  | inactive: -9.22%
COc1ccc(CNCc2c(C(=O)O)c(C)n(Cc3ccc(Cl)cc3)c2C)c(OC)c1 | inconclusive [inhibitor, single point] | 
CCc1cccc(NS(=O)(=O)c2c(C)n[nH]c2C)c1 |  | inactive: -6.36%

SMILES | Potency | activity change, negative = growth inhibition
Oc1[nH]c(N=C2N=c3ccccc3=N2)c2ccccc12 | active: 0.92 µM | 
CCCNC(=O)N1CCN(C(=O)NCCC)CC1 |  | inactive: 4.59%
COC(=O)CCc1n[nH]c(=O)[nH]c1=O |  | inactive: -5.17%
COc1ccc(CCNC(=O)CC(c2ccccc2)c2cc(C)ccc2O)cc1OC (centres undefined) | active: 13 µM | 
CCCCn1cnc2c(SCc3ccccc3F)nc(N)nc21 |  | inactive: -28.4%
Cc1ccc(Cc2nc3ccccc3nc2SCC(=O)Nc2cccc(C(F)(F)F)c2)cc1 | inconclusive [inhibitor, single point] | 
CC1(C)CC(=O)C=C(N2CCCC2)C1 |  | inactive: -1.76%
Fc1ccccc1CSc1nc2ncc(Br)cc2[nH]1 |  | inactive: -11.2%
Cc1ccc(S(=O)(=O)N(C(=O)c2ccncc2)c2ccc(OC(=O)c3ccncc3)cc2)c(C)c1 | inconclusive [inhibitor, single point] | 
Cc1cc2c(NC(=O)Nc3ccc(C(C)(C)C)cc3)cccc2nn1 | inconclusive [inhibitor, single point] | 
CCOC(=O)C(=O)N(C)c1c(CC)nc2c(OCCC3CCCCC3)cccn12 | active: 18.4 µM | 
CCc1c(C)nc2ncnn2c1Nc1ccc(C)c(C)c1 | inconclusive [inhibitor, single point] | 
COc1cc(/C=C2\SC(=S)N(NC(C)=O)C2=O)ccc1OC(=O)c1ccco1 | inconclusive [inhibitor, partial curve, poor fit] | 
CC(=O)c1ccc(N2CCN(S(=O)(=O)c3cccc4nonc34)CC2)cc1 | inconclusive [inhibitor, single point] | 
CC(C)CN1C(=O)c2ccc(C(=O)Nc3ccncc3)cc2C1=O |  | inconclusive: -31.1% [inhibitor]
O=[N+]([O-])c1cc(Cl)ccc1NCCc1ccccn1 | inconclusive [inhibitor, single point] | 
Cc1ccc(-n2ncc3c(NC4CCCCC4)ncnc32)cc1 | active: 20.6 µM | 
O=c1c2ccccc2nnn1CSc1nnc(COc2ccc(Cl)cc2)n1Cc1ccco1 | active: 20.6 µM | 
CC1Oc2ccccc2N(CC(=O)NCCCN2CCOCC2)C1=O (centres undefined) |  | inactive: 1.7%
COc1cc(C2C3CN(C)CC=C3C(C#N)=C(N)C2(C#N)C#N)ccc1OC(C)C (centres undefined) |  | inactive: -27.2%
CC(=O)N(/N=C/c1ccc(C)cc1)c1nc(CCl)cs1 | inconclusive [inhibitor, partial curve] | 
CC1CCC(NC(=O)c2ccc(NC(=O)CC3SC(N4CCCC4)=NC3=O)cc2)CC1 (centres undefined) | inconclusive [inhibitor, single point] | 
O=C(O)c1cccc2c1C(=O)c1ccc(N3CCN(Cc4ccc5c(c4)OCO5)CC3)cc1S2(=O)=O |  | inactive: -23%
COc1ccccc1C(=O)N1CCN(c2nc3cc(C)c(C)cc3cc2C#N)CC1 | active: 16.4 µM | 
